Measured values taken from the supplement of paper PMC9446081.
The campaign covered roughly 39,000 compounds. About 220 (0.56%) showed activity. The list shows a part of the results.

Each compound was assayed on Escherichia coli K-12 BW25113 (assay: relative growth (OD600 normalised to plate interquartile mean) (fraction); higher = less growth inhibition, active = 0.2 or less). Conditions: 50 µM; LB; incubation time: overnight (16-24 h).
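Also: static incubation at 37 °C against the wild-type strain, values averaged over two biological replicates.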

Row | Compound | relative growth
1 | C[C@H](CO)N1C[C@H](C)[C@H](CN(C)C(=O)Nc2ccc(F)cc2)OCc2ccccc2-c2c(n(C)c3ccccc23)C1=O | inactive: 1.04
2 | CN1C(=O)NC2(CCNCC2)C1=O | inactive: 1.03
3 | CC(C)C(=O)NC1=N[C@H]2[C@@H](N=CN2[C@H]2C[C@@H](O)[C@@H](CO)O2)C(=O)N1 | inactive: 0.996
4 | Cc1ccc(S(=O)(=O)N(C)C[C@H]2Oc3ccc(NS(=O)(=O)c4c(C)noc4C)cc3C(=O)N([C@H](C)CO)C[C@H]2C)cc1 | inactive: 1.05
5 | O=C(CN1CCOCC1)NCC[C@H]1CC[C@@H](NS(=O)(=O)c2ccc(F)cc2)[C@@H](CO)O1 | inactive: 1.01
6 | C[C@@H]1CCCCO[C@H](CN(C)Cc2ccc(C(F)(F)F)cc2)[C@H](C)CN([C@@H](C)CO)C(=O)c2cc(NS(=O)(=O)c3ccc(F)cc3)ccc2O1 | inactive: 1.04
7 | C[C@H]1CN([C@@H](C)CO)C(=O)c2cc(C#CC3(O)CCCC3)cnc2O[C@H]1CN(C)S(=O)(=O)c1ccc(F)cc1 | inactive: 0.997
8 | C[C@@H]1CN([C@@H](C)CO)C(=O)c2cc(NC(=O)Nc3ccc4c(c3)OCO4)ccc2O[C@@H](C)CCCCO[C@H]1CN(C)C(=O)Nc1cccc2ccccc12 | inactive: 1.03
9 | COc1ccc(S(=O)(=O)N(C)C[C@H]2Oc3ccc(N(C)C)cc3C(=O)N([C@@H](C)CO)C[C@@H]2C)cc1 | inactive: 1.01
10 | C[C@@H]1CN([C@@H](C)CO)C(=O)c2cc(NC(=O)c3ccccc3)ccc2O[C@@H](C)CCCCO[C@@H]1CN(C)S(=O)(=O)c1ccccc1 | inactive: 1
11 | COc1cccc2c1C(=O)c1c(O)c3c(c(O)c1C2=O)C[C@](O)(C(C)=O)C[C@H]3O[C@H]1C[C@@H](N)[C@@H](O)[C@@H](C)O1 | inactive: 0.924
12 | C[C@@H]1CN([C@H](C)CO)C(=O)c2cc(NC(=O)Nc3cccc4ccccc34)ccc2O[C@@H](C)CCCCO[C@H]1CN(C)S(=O)(=O)c1ccc(Cl)cc1 | inactive: 1.03
13 | C[C@H]1CN([C@@H](C)CO)C(=O)c2cccc(NC(=O)c3nc4ccccc4s3)c2O[C@H]1CN(C)C(=O)Nc1ccc(C(F)(F)F)cc1 | inactive: 1
14 | Cc1ccc(S(=O)(=O)N2CCNCC2)cc1 | inactive: 0.981
15 | Cc1noc(C)c1S(=O)(=O)N(C)C[C@H]1Oc2ccc(NS(=O)(=O)c3ccc(Cl)cc3)cc2C(=O)N([C@@H](C)CO)C[C@H]1C | inactive: 1.01
16 | NC(=S)N[C@H]1CCS(=O)(=O)C1 | inactive: 1.03
17 | C[C@@H]1CN([C@H](C)CO)C(=O)Cc2cc(NC(=O)Cn3cnnn3)ccc2O[C@@H]1CN(C)Cc1ccccc1 | inactive: 0.974
18 | CC1(C)OCC(CO)([N+](=O)[O-])CO1 | inactive: 0.969
19 | Cc1noc(C)c1S(=O)(=O)Nc1ccc2c(c1)CC(=O)N([C@H](C)CO)C[C@H](C)[C@@H](CN(C)Cc1ccc(-c3ccccc3)cc1)O2 | inactive: 1.02

Row | Compound | relative growth
20 | COc1ccc(CNC(=O)N(C)C[C@@H]2OCc3ccccc3-c3c(n(C)c4ccccc34)C(=O)N([C@@H](C)CO)C[C@H]2C)cc1 | inactive: 0.996
21 | Nc1nnc(SC[C@@H](O)CO)s1 | inactive: 1
22 | COc1ccc(CCNC(=O)[C@@]2(Sc3ccc(C)cc3)CC(=O)N(Cc3cc(C(F)(F)F)cc(C(F)(F)F)c3)[C@@H]2c2ccc(CO)cc2I)cc1 | inactive: 0.958
23 | O=C1OCC=C[C@H]2O[C@@]34C=CCN(CCN5CCOCC5)C(=O)[C@H]3N(CCCCCCO)C(=O)[C@@H]4[C@@H]12 | inactive: 0.986
24 | Cc1noc(C)c1NC(=O)N(C)C[C@H]1Oc2ncc(C#CCN(C)C)cc2C(=O)N([C@H](C)CO)C[C@H]1C | inactive: 1.01
25 | CO[C@@H]1CN(C)C(=O)c2cc(NC(=O)NC3CCCCC3)ccc2OC[C@@H](C)N(CCc2ccccc2)C[C@@H]1C | inactive: 1.02
26 | Cc1noc(C)c1NC(=O)Nc1cccc2c1O[C@@H](CN(C)C(=O)Nc1cccc3ccccc13)[C@@H](C)CN([C@@H](C)CO)C2=O | inactive: 0.99
27 | CO[C@@H]1CN(C)C(=O)c2ccc(NC(=O)Nc3ccc(Cl)cc3)cc2OC[C@@H](C)N(C(=O)Nc2c(C)noc2C)C[C@@H]1C | inactive: 0.972
28 | COc1ccccc1CNC(=O)C[C@@H]1C[C@@H]2c3cc(NC(=O)NC4CCCC4)ccc3O[C@@H]2[C@@H](CO)O1 | inactive: 0.998
29 | C[C@H]1CCCCO[C@H](CN(C)S(=O)(=O)c2ccc(F)cc2)[C@@H](C)CN([C@@H](C)CO)C(=O)c2cc(NC(=O)Nc3ccc(F)cc3)ccc2O1 | inactive: 0.97
30 | Cc1ccc(-c2cnc3c(c2)C(=O)N([C@@H](C)CO)C[C@@H](C)[C@@H](CN(C)C(=O)Cc2ccncc2)O3)cc1 | inactive: 1.01
31 | C[C@H](CO)N1C[C@H](C)[C@H](CN(C)Cc2ccc(Cl)c(Cl)c2)Oc2ccc(NS(=O)(=O)c3ccccc3)cc2CC1=O | inactive: 1
32 | COc1ccc(S(=O)(=O)N(C)C[C@@H]2Oc3ccc(NS(=O)(=O)c4cccs4)cc3CC(=O)N([C@@H](C)CO)C[C@@H]2C)cc1 | inactive: 0.985
33 | CC12CCC(=O)C=C1CCC1C2C(O)CC2(C)C1CCC2(O)C(=O)COP(=O)([O-])[O-].CC[NH+](CC)CC.CC[NH+](CC)CC (stereo not drawn) | inactive: 1.1
34 | N[C@@H](CCO)c1cccc(Cl)c1 | inactive: 1.01
35 | Cc1ccc(S(=O)(=O)Nc2ccc3c(c2)C(=O)N([C@@H](C)CO)C[C@@H](C)[C@H](CN(C)C(=O)c2ccccc2)OCCCC[C@@H](C)O3)cc1 | inactive: 1.01
36 | COc1ccccc1C#Cc1ccc2c(c1)O[C@@H](CN(C)C(C)=O)[C@@H](C)CN([C@H](C)CO)S2(=O)=O | inactive: 1
37 | Cc1ccc(S(=O)(=O)N(C)C[C@H]2Oc3c(NS(=O)(=O)c4ccc(F)cc4)cccc3C(=O)N([C@H](C)CO)C[C@H]2C)cc1 | inactive: 0.999
38 | C[C@@H]1CN([C@H](C)CO)C(=O)c2cc(NC(=O)C3CC3)ccc2O[C@@H]1CN(C)S(=O)(=O)c1ccc(F)cc1 | inactive: 0.974
